Experimental data: the supplement of paper PMC4967469
The IC50 comes from the fitted curve, where viability falls to half of the control; fits outside the tested doses are given as limits. AUC, from the same fit, is the share of area under the viability curve across the 256-fold dose range; values near 1 show little effect. For some assays here: Where the top dose is marked as inferred, it was derived from the fitted curves, not read from the paper.

Assays:
Test in all cases: Viability of human cancer cell lines after 72 h of drug (GDSC screen)
PIK-93 = compound: CC(=O)Nc1nc(C)c(-c2ccc(Cl)c(S(=O)(=O)NCCO)c2)s1 [PIK-93]; settings: top dose 20 µM
Description: (§1)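 Human cancer cell lines in 384-well plates, medium with 10% serum, drug for 72 h over a 256-fold dose range (nine 2-fold or five 4-fold steps up to the top dose). Adherent lines were fixed and stained with the nucleic acid dye Syto60, suspension lines read with resazurin; signal relative to control wells, capped at 0 and 100%. One two-parameter sigmoid per drug and line, fitted in a mixed model over all curves with the slope shared within a line.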

GW 441756 = compound: Cn1cc(/C=C2\C(=O)Nc3cccnc32)c2ccccc21 [GW 441756]; settings: top dose 2 µM; top dose inferred
Description: as §1

GW843682X = compound: COc1cc2ncn(-c3cc(OCc4ccccc4C(F)(F)F)c(C(N)=O)s3)c2cc1OC [GW843682X]; settings: top dose 0.256 µM
Description: as §1

ABT-263 = compound: CC1(C)CCC(c2ccc(Cl)cc2)=C(CN2CCN(c3ccc(C(=O)NS(=O)(=O)c4ccc(N[C@H](CCN5CCOCC5)CSc5ccccc5)c(S(=O)(=O)C(F)(F)F)c4)cc3)CC2)C1 [ABT-263]; settings: top dose 2 µM; top dose inferred
Description: as §1

Salubrinal = compound: O=C(/C=C/c1ccccc1)NC(NC(=S)Nc1cccc2cccnc12)C(Cl)(Cl)Cl [Salubrinal]; settings: top dose 16 µM; top dose inferred
Description: as §1

piperlongumine = compound: COc1cc(/C=C/C(=O)N2CCC=CC2=O)cc(OC)c1OC [piperlongumine]; settings: top dose 10 µM
Description: as §1

| Cell Line | AUC (PIK-93) | IC50 (PIK-93) [µM] | AUC (GW 441756) | IC50 (GW 441756) [nM] | AUC (GW843682X) | IC50 (GW843682X) [nM] | AUC (ABT-263) | IC50 (ABT-263) [nM] | AUC (Salubrinal) | IC50 (Salubrinal) [µM] | AUC (piperlongumine) | IC50 (piperlongumine) [µM] |
| --- | --- | --- | --- | --- | --- | --- | --- | --- | --- | --- | --- | --- |
| EW-3 (Ewing sarcoma, adherent) | 0.521 | 1.44 | 0.978 | > 2000 | 0.734 | 83.2 | 0.276 | 26.1 | 0.981 | > 16 | 0.811 | 6.23 |
| NCI-H1694 (small cell lung carcinoma, suspension) | 0.868 | 18 | 0.989 | > 2000 | 0.673 | 48.4 | 0.82 | 1140 | 0.916 | > 16 | 0.831 | 6.27 |
| SW962 (urogenital system, adherent) | 0.765 | 9.08 | 0.979 | > 2000 | 0.629 | 39.7 | 0.963 | > 2000 | 0.952 | > 16 | 0.609 | 1.34 |
| SJSA-1 (bone, adherent) | 0.866 | > 20 | 0.924 | > 2000 | 0.576 | 26.5 | 0.964 | > 2000 | 0.964 | > 16 | 0.771 | 4.32 |
| NCI-SNU-16 (stomach, suspension) | 0.991 | > 20 | 0.991 | > 2000 | 0.448 | 11.7 | 0.951 | > 2000 | 0.907 | > 16 | 0.823 | 4.99 |
| GOTO (neuroblastoma, adherent) | 0.857 | 19.9 | 0.935 | > 2000 | 0.853 | 244 | 0.844 | 1720 | 0.916 | > 16 | 0.774 | 4.47 |
| MRK-nu-1 (breast, suspension) | 0.869 | 15.9 | 0.982 | > 2000 | 0.48 | 14.1 | 0.981 | > 2000 | 0.825 | 8.6 | 0.793 | 4.16 |
| EW-24 (Ewing sarcoma, semi-adherent) | 0.989 | > 20 | 0.992 | > 2000 | 0.907 | > 256 | 0.863 | 1400 | 0.984 | > 16 | 0.975 | > 10 |
| SHP-77 (small cell lung carcinoma, semi-adherent) | 0.929 | > 20 | 0.987 | > 2000 | 0.646 | 38.6 | 0.987 | > 2000 | 0.929 | > 16 | 0.801 | 4.27 |
| DU-4475 (breast, suspension) | 0.789 | 7.12 | 0.992 | > 2000 | 0.686 | 47.4 | 0.786 | 699 | 0.875 | 10.9 | 0.847 | 5.41 |
| NCI-H1155 (large cell lung carcinoma, suspension) | 0.937 | > 20 | 0.987 | > 2000 | 0.699 | 51.6 | 0.515 | 136 | 0.962 | > 16 | 0.84 | 5.2 |
| MONO-MAC-6 (acute myeloid leukaemia, suspension) | 0.375 | 0.555 | 0.862 | 1890 | 0.573 | 25.6 | 0.846 | 1590 | 0.841 | 12.1 | 0.68 | 2.06 |
| HSC-39 (stomach, suspension) | 0.991 | > 20 | 0.877 | 1530 | 0.688 | 49.4 | 0.672 | 349 | 0.969 | > 16 | 0.822 | 4.83 |
| NCI-H187 (small cell lung carcinoma, suspension) | 0.734 | 6.22 | 0.988 | > 2000 | 0.647 | 42.4 | 0.352 | 46.8 | 0.924 | > 16 | 0.833 | 7.23 |
| SCH (stomach, adherent) | 0.985 | > 20 | 0.988 | > 2000 | 0.941 | > 256 | 0.981 | > 2000 | 0.987 | > 16 | 0.843 | 7.89 |
| EW-13 (Ewing sarcoma, suspension) | 0.526 | 1.48 | 0.964 | > 2000 | 0.969 | > 256 | 0.729 | 609 | 0.97 | > 16 | 0.977 | > 10 |
| CP66-MEL (melanoma, adherent) | 0.956 | > 20 | 0.916 | > 2000 | 0.796 | 140 | 0.959 | > 2000 | 0.881 | > 16 | 0.9 | > 10 |
| ROS-50 (B-cell leukaemia, suspension) | 0.509 | 1.33 | 0.984 | > 2000 | 0.92 | > 256 | 0.715 | 607 | 0.951 | > 16 | 0.978 | > 10 |
| NCI-H1648 (lung adenocarcinoma, adherent) | 0.696 | 4.63 | 0.959 | > 2000 | 0.405 | 8.64 | 0.852 | 1700 | 0.931 | > 16 | 0.979 | > 10 |
| COR-L279 (small cell lung carcinoma, suspension) | 0.589 | 2.12 | 0.991 | > 2000 | 0.726 | 64.4 | 0.671 | 353 | 0.887 | 14.5 | 0.926 | > 10 |
| Raji (Burkitt lymphoma, suspension) | 0.862 | 15.3 | 0.99 | > 2000 | 0.874 | 221 | 0.987 | > 2000 | 0.954 | > 16 | 0.764 | 3.41 |

| Cell Line | AUC (PIK-93) | IC50 (PIK-93) [µM] | AUC (GW 441756) | IC50 (GW 441756) [nM] | AUC (GW843682X) | IC50 (GW843682X) [nM] | AUC (ABT-263) | IC50 (ABT-263) [nM] | AUC (Salubrinal) | IC50 (Salubrinal) [µM] | AUC (piperlongumine) | IC50 (piperlongumine) [µM] |
| --- | --- | --- | --- | --- | --- | --- | --- | --- | --- | --- | --- | --- |
| WSU-DLCL2 (B-cell lymphoma, suspension) | 0.905 | 19 | 0.993 | > 2000 | 0.887 | 202 | 0.808 | 828 | 0.993 | > 16 | 0.766 | 3.11 |
| Ramos-2G6-4C10 (Burkitt lymphoma, suspension) | 0.545 | 1.62 | 0.988 | > 2000 | 0.501 | 16.1 | 0.603 | 229 | 0.868 | 11.2 | 0.8 | 4.05 |
| SUP-T1 (T-cell lymphoblastic leukaemia, suspension) | 0.644 | 3 | 0.98 | > 2000 | 0.988 | > 256 | 0.684 | 387 | 0.975 | > 16 | 0.818 | 5 |
| UACC-257 (melanoma, adherent) | 0.817 | 14.8 | 0.951 | > 2000 | 0.777 | 129 | 0.969 | > 2000 | 0.892 | > 16 | 0.731 | 3.4 |
| HL-60 (acute myeloid leukaemia, suspension) | 0.578 | 1.99 | 0.961 | > 2000 | 0.604 | 29.9 | 0.398 | 67.7 | 0.887 | 14.7 | 0.864 | 7.29 |
| HCC1187 (breast, suspension) | 0.709 | 4.68 | 0.45 | 91.9 | 0.678 | 48.9 | 0.978 | > 2000 | 0.932 | > 16 | 0.788 | 4.14 |
| LB2518-MEL (melanoma, adherent) | 0.925 | > 20 | 0.987 | > 2000 | 0.684 | 54 | 0.939 | > 2000 | 0.795 | 7.85 | 0.894 | > 10 |
| DG-75 (Burkitt lymphoma, suspension) | 0.845 | 14.7 | 0.971 | > 2000 | 0.669 | 47.6 | 0.931 | > 2000 | 0.896 | > 16 | 0.739 | 3.04 |
| KU812 (chronic myeloid leukaemia, suspension) | 0.031 | < 0.0781 | 0.945 | > 2000 | 0.569 | 24.3 | 0.588 | 213 | 0.904 | > 16 | 0.865 | 7.61 |
| K5 (thyroid, adherent) | 0.803 | 9.41 | 0.984 | > 2000 | 0.735 |  | 0.973 | > 2000 | 0.887 | > 16 | 0.704 | 2.28 |
| DMS-79 (small cell lung carcinoma, suspension) | 0.914 | > 20 | 0.986 | > 2000 | 0.924 | > 256 | 0.579 | 214 | 0.977 | > 16 | 0.962 | > 10 |
| NCI-H23 (lung adenocarcinoma, adherent) | 0.951 | > 20 | 0.897 | > 2000 | 0.963 | > 256 | 0.948 | > 2000 | 0.983 | > 16 | 0.683 | 2.02 |
| NCI-H1876 (small cell lung carcinoma, adherent) | 0.85 | 15.4 | 0.987 | > 2000 | 0.474 | 13.5 | 0.599 | 235 | 0.967 | > 16 | 0.804 | 5.09 |
| QIMR-WIL (acute myeloid leukaemia, suspension) | 0.343 | 0.464 | 0.978 | > 2000 | 0.616 | 33 | 0.497 | 123 | 0.892 | > 16 | 0.805 | 4.86 |
| D-263MG (glioma, adherent) | 0.938 | > 20 | 0.983 | > 2000 | 0.915 | > 256 | 0.971 | > 2000 | 0.933 | > 16 | 0.735 | 3.43 |
| LU-134-A (small cell lung carcinoma, suspension) | 0.793 | 9.78 | 0.98 | > 2000 | 0.666 | 48 | 0.6 | 240 | 0.979 | > 16 | 0.812 | 5.79 |
| ALL-SIL (T-cell leukaemia, suspension) | 0.533 | 1.52 | 0.989 | > 2000 | 0.42 | 10 | 0.405 | 71.3 | 0.796 | 6.35 | 0.777 | 3.45 |
| NOS-1 (osteosarcoma, adherent) | 0.694 | 5.01 | 0.943 | > 2000 | 0.497 | 15.7 | 0.879 | > 2000 | 0.801 | 10 | 0.813 | 7.03 |
| OCI-AML5 (acute myeloid leukaemia, suspension) | 0.383 | 0.616 | 0.721 | 494 | 0.562 | 23.3 | 0.64 | 294 | 0.923 | > 16 | 0.807 | 4.59 |
| GI-ME-N (neuroblastoma, adherent) | 0.558 | 1.9 | 0.967 | > 2000 | 0.722 | 86.9 | 0.976 | > 2000 | 0.81 | 12.4 | 0.571 | 1.05 |
| RF-48 (stomach, adherent) | 0.298 | 0.313 | 0.976 | > 2000 | 0.694 | 60.3 | 0.975 | > 2000 | 0.931 | > 16 | 0.963 | > 10 |
